Measurements: the supplement of paper PMC11417369
± gives the standard deviation of the averaged measurements. This is one part of the list.

Each sequence was assayed on PfAP2-G AP2 domain (GST-tagged) (assay: gcPBM binding intensity (ln(normalized median fluorescence intensity)); higher = stronger DNA binding).
Method in brief: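 Using an Agilent 4 × 180k array, primer-extended double-stranded 36-bp intergenic genomic probes and negative controls were exposed for 1 h to GST-fused P. falciparum DNA-binding domains expressed in E. coli. Binding was carried out in 1× PBS with 1% milk, 0.2 mg/ml BSA, 0.5% salmon testes DNA and 0.03% Triton X-100, and protein was detected with Alexa488 anti-GST antibody and a 488 nm scan. Binding intensity is the highest Masliner-normalised natural-log median intensity across replicate spots of either probe orientation.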

Sequence | gcPBM binding intensity (ln)
AAAAAAAAAAAGAAAGCACACAATACATATGTATAA [CACACA_site1137] | 9.815 ± 0.035
TTATGTATAAACACACGTACACACACTAAGTATATC [XGTACX_site3254] | 11.5 ± 1
AAGGTATGATTAATCACACACATAAATATATATACA [CACACA_site2658] | 9.72 ± 0.22
ATATTAATTCGTTTTGTACACACATAATGAATAATT [CACACA_site8701] | 11 ± 0.54
ATAAAAATCATGTTGGTGCGAAATTTTATTATCAGA [GTGCAC_site9735] | 9.99 ± 0.028
AATTATTTACCCTATACACACAAAACAGACTAAAAA [CACACA_site6688] | 10.4 ± 0.31
AGCCTCGGGGTCATATATATATATATATATATATAT [CACACA_negctrl_site512] | 10.3 ± 0.42
CCACGTATAATATGTACACACACATATATACAAAAA [CACACA_site8208] | 11.4 ± 0.98
ATTATATTTTTAAGTACACACATATATATATATATA [CACACA_site5925] | 11.5 ± 0.91
TTTAAAAAGATATATACACACATATAAATAAATATA [CACACA_site6436] | 9.85 ± 0.071
ACACATACACATTAGGTGCATATATTTCAATATTAC [GTGCAC_site9423] | 10.1 ± 0.14
TGTATACTATTAAATTGTACACATAAGAAATATTAT [XGTACX_site5839] | 11.4 ± 0.86
TTTTACAAATATAATGGGTGAGCTATCAAAATAAAT [GTGCAC_negctrl_site91] | 9.915 ± 0.078
TTTTTCTATAAAAAAAAAAAAAAAAAATATATATAT [TGCATGCA_negctrl_site535] | 9.62 ± 0.49
TTGTATATTTTATGTACACACAATAAGTTAATATAA [CACACA_site4655] | 11.4 ± 0.93
AAAATAATGTATATATGTACATATAAATATATATAT [XGTACX_site8081] | 11.1 ± 0.75
ATAAAAGGAAGAAAATGTACATATAATTATATGCAT [XGTACX_site8421] | 10.9 ± 0.53
TATTATTGCATATTTACACACGTACTAATTTAAACA [CACACA_site970] | 11.2 ± 0.82
ATGTTTTTAAAAAATTGTACATAATATTTTTTATAA [XGTACX_site7692] | 11.3 ± 0.72
TATATATATATATATATAATACGAATTTGTAGTACA [TGCATGCA_negctrl_site224] | 11.5 ± 0.93
AAAAAAAAAAAGTTTACACACATTAATTTTACATAT [CACACA_site834] | 9.76 ± 0.042
AAAAAAATACCATTCACACATATTCTTTTATTATTT [CACACA_site5113] | 9.94 ± 0.19
ATTAAAAAGACAAAAAAAAAATTTTTTTTTTTTTTT [CACACA_negctrl_site1027] | 9.99 ± 0.085
AAATCAACGATCTATACATGCATATAATATATACAT [TGCATGCA_site25] | 9.68 ± 0.014
